Source: PubChem BioAssay AID1768 (National Center for Advancing Translational Sciences (NCATS), 2009)
Out of some 270,000 compounds screened, about 620 (0.23%) were called active. The shares of active, inactive and inconclusive entries below differ from those in the screen. The call rests on the fitted dose curve; in most records, active means well fitted inhibition curve with a large enough effect in the polarisation, with a control signal flat (not every such curve was filed as active); inconclusive means small, poorly fitted or top-dose-only effect, or effect the other way, or a change in a side signal; inactive means no such curve, though single readings can be large or run the other way; the % refers to the polarisation. Where the call is inconclusive, the potency comes from a doubtful curve fit. “Side channel” marks fits to a control or component signal instead of the main read-out.

biological target: Menin (Homo sapiens) (UniProt O00255); experiment: qHTS Assay for Inhibitors Targeting the Menin-MLL Interaction in MLL Related Leukemias: Competition With Texas Red Labeled MLL-derived Mutant Peptide; settings: fluorescence polarization; FP activity change, negative = inhibition: at 61.6 µM (top of the series); on FP activity change, negative = inhibition: % of control where 0% means no effect
Potency means the concentration at half of the fitted maximal effect; tags describe the fitted curve by direction and shape or compound fluorescence and quenching.

UniProt O00255, sequence (O00255 whole entry, looked up): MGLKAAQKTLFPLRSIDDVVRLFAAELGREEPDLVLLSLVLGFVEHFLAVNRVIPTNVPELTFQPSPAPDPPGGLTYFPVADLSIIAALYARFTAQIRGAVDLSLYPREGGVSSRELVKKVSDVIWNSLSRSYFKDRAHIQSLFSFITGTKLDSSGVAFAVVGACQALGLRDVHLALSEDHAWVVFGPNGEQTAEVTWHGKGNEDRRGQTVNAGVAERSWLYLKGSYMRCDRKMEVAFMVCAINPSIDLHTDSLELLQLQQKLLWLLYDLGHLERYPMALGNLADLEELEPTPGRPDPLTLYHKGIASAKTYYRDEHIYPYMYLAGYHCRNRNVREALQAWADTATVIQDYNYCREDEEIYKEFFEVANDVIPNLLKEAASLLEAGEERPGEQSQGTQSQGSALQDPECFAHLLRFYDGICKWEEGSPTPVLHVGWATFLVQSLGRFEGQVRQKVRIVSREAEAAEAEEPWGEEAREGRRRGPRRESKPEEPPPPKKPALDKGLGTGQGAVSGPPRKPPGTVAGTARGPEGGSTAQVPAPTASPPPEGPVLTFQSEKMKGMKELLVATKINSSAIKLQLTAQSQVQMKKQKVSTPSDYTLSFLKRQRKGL

Potency, inactive:
CN1CCc2cccc3c2[C@@H]1Cc1ccc(O)c(O)c1-3

Potency, inconclusive:
COc1ccccc1C1=Nc2cccc3cccc(c23)N1 14.1 µM [quencher, side channel, partial curve]
CC(Sc1nnc(NCc2ccccc2)s1)C(=O)Nc1ccc2c(c1)C(=O)c1ccccc1C2=O (stereo not given) 11.2 µM [quencher, side channel, partial curve]
COCCN=c1scc(-c2ccccc2)n1/N=C/c1c[nH]c2ccccc12 17.8 µM [quencher, side channel, partial curve]
Cc1c(C(=O)Nc2nnc(SCc3ccccc3Cl)s2)cccc1[N+](=O)[O-] 44.7 µM [quencher, side channel, single point]
CCCCCN(C(=O)COC(=O)c1ccc(Br)o1)c1c(N)n(CCCC)c(=O)[nH]c1=O 22.4 µM [fluorescent, side channel, single point]
COc1ccc(C(=O)Nc2ccc3c(c2)OCCO3)cc1[N+](=O)[O-] 31.6 µM [quencher, side channel, single point]
CCN(CC)CCN(Cc1cc2cc(C)ccc2[nH]c1=O)C(=O)Nc1ccccc1OC 8.91 µM [inhibitor, partial curve]
Cc1ccc(NC(=O)/C(C#N)=C/c2cn(CC(=O)NCc3ccco3)c3ccccc23)cc1C 28.2 µM [fluorescent, side channel, single point]
CC(C)(C)c1cc(C(=O)NCCCn2ccnc2)cc(C(C)(C)C)c1 3.55 µM [inhibitor, full curve]
Cc1cccc(NC(NC(=O)Cc2ccccc2)C(Cl)(Cl)Cl)c1 (stereo not given) 35.5 µM [quencher, side channel, single point]
COc1ccc(C2(c3ccc(OC)cc3)NC(=O)N(CC(=O)Nc3ccc(C(N)=O)cc3)C2=O)cc1 7.94 µM [quencher, side channel, single point]
CN(Cc1cccc(F)c1)C(=O)CNS(=O)(=O)c1ccc2ccccc2c1 39.8 µM [fluorescent, side channel, single point]
O=C(NC(=S)Nc1ccc(S(=O)(=O)Nc2ncccn2)cc1)c1ccc(Br)cc1 12.6 µM [quencher, side channel, partial curve]
O=C1CC(c2ccccc2)CC(O)=C1C=NC1CCCC1 (stereo not given) 17.8 µM [inhibitor, partial curve]
CC(C)c1ccc(NC(=S)NCCc2c[nH]c3ccccc23)cc1 31.6 µM [quencher, side channel, single point]
COc1cc(CNCCc2ccccc2)cc(Cl)c1OCc1ccccc1 3.55 µM [fluorescent, side channel, partial curve]
CCOc1ccc(C(O)(CCC(C)C)C(CN2CCOCC2)c2ccccc2)cc1 (stereo not given) 10 µM [fluorescent, side channel, partial curve]
CCCc1cc(=O)[nH]c(SCC(=O)Nc2nc3ccc(OCC)cc3s2)n1 20 µM [quencher, side channel, single point]
O=C1c2cccc3cccc(c23)C(=O)N1OS(=O)(=O)c1ccccc1 25.1 µM [quencher, side channel, single point]
COc1ccccc1NC(=O)CN1CCN(CC(=O)Nc2cc(NC(C)=O)ccc2OC)CC1 7.08 µM [inhibitor, single point]
Cc1cc(C)n(-c2ccc(C(=O)N3CCC(CO)(Cc4ccccc4)CC3)cc2)n1 3.16 µM [fluorescent, side channel, full curve]
Cc1ccc2nc3c(cc(S(=O)(=O)c4ccccc4)c(=N)n3Cc3ccco3)c(=O)n2c1 12.6 µM [quencher, side channel, partial curve]
CC1(C)C([N+](=O)[O-])C(c2ccccc2O)NC(c2ccccc2O)C1[N+](=O)[O-] (stereo not given) 14.1 µM [quencher, partial curve]
COc1cc(S(=O)(=O)N2CCC(N3CCCCC3)CC2)ccc1-n1cnnn1 11.2 µM [inhibitor, partial curve]
O=C(O)c1cccc(NS(=O)(=O)c2ccc(C3CCCCC3)cc2)c1 22.4 µM [quencher, side channel, single point]
CC(C)C(NC(=O)c1ccc(S(=O)(=O)N2CCOCC2)cc1)c1nc2ccccc2[nH]1 (stereo not given) 39.8 µM [inhibitor, single point]
CCOc1ccc2nc(NCCNS(=O)(=O)c3ccccc3)c(C#N)cc2c1 28.2 µM [quencher, side channel, single point]
CCCc1c(C(=O)N/N=C/c2ccc(OCc3ccccc3)c(OC)c2)nnn1-c1nonc1N 3.55 µM [quencher, side channel, full curve, poor fit]
C=CCn1c(-c2csc(-c3ccc(Cl)cc3)n2)n[nH]c1=S 14.1 µM [inhibitor, partial curve, poor fit]
CC(C)(C)c1ccc(S(=O)(=O)N2CCN(c3ncccn3)CC2)cc1 28.2 µM [fluorescent, side channel, single point]
Cc1cccc(N2CCN(C(=O)c3ccc(N4CCCC4=O)cc3)CC2)c1C 10 µM [fluorescent, side channel, partial curve]
Cc1c(C(=O)O)oc2ccc(S(=O)(=O)N3CCC(C)CC3)cc12 39.8 µM [inhibitor, partial curve]
O=C(NCc1ccco1)/C(=C\C=C\c1ccccc1)NC(=O)c1ccccc1Br 39.8 µM [fluorescent, side channel, single point]
CCCOc1cccc(C(=O)NC(=S)Nc2cccc(NC(=O)c3ccccc3Cl)c2)c1 39.8 µM [inhibitor, single point]
COc1ccccc1N1CCN(C(=O)c2cc(-c3ccc(Cl)cc3)on2)CC1 22.4 µM [fluorescent, side channel, partial curve]
CNC(=S)N/N=C1\CC(c2ccccc2)Oc2ccccc21 (stereo not given) 25.1 µM [inhibitor, single point]
O=S(=O)(/N=C(\Sc1ccc(Cl)cc1)c1ccccc1)c1ccccc1 8.91 µM [inhibitor, single point]
C#CCN(Cc1ccco1)C(=O)c1cc(COc2ccc(F)cc2Cl)on1 35.5 µM [quencher, side channel, partial curve]
COc1ccc(/C=C(/C#N)C(=O)Nc2cccc([N+](=O)[O-])c2)cc1C(=O)O 22.4 µM [quencher, side channel, partial curve]
COc1ccc(-c2[nH]c(-c3cccc(OC)c3)nc2SCC(=O)NCc2ccco2)cc1 28.2 µM [quencher, partial curve, poor fit]
COC(=O)c1ccc(NC(=O)c2cccc(NC(=O)c3ccco3)c2)cc1 39.8 µM [fluorescent, single point]
O=C(Nc1ccnn1C1CCN(CCCC2CCCC2)CC1)c1ccccc1Cl 22.4 µM [inhibitor, partial curve]
COc1ccc(CN2CCNC(=O)C2CC(=O)NC2CCCCCC2)c(F)c1 (stereo not given) 15.8 µM [fluorescent, side channel, partial curve]
Cc1[nH]c2ccccc2c1C(=O)COC(=O)c1ccc([N+](=O)[O-])s1 11.2 µM [quencher, side channel, partial curve]
Cc1c(C#N)c(O)[nH]c(=O)c1N=Nc1ccc(Br)cc1C(=O)O 31.6 µM [quencher, side channel, single point]
Cc1cc(C)cc(N(CC(=O)NCc2ccc(F)cc2)C(=O)c2snc(C(N)=O)c2N)c1 39.8 µM [fluorescent, side channel, single point]
CCN1C(=O)C2(C(C#N)=C(N)Oc3n[nH]c(C(C)C)c32)c2ccccc21 (stereo not given) 0.891 µM [inhibitor, full curve]
CN(CC(=O)Nc1ccccc1Cl)C(=O)COC(=O)c1nc(Cl)c(Cl)c(Cl)c1Cl 8.91 µM [inhibitor, single point]

FP activity change, negative = inhibition, inactive:
COc1ccc(NC(=O)NC2CCCCCCC2)cc1 1.53%
C[C@@H]1CC2[C@@H]3C[C@H](F)C4=CC(=O)C(Cl)=C[C@]4(C)[C@@]3(F)[C@H](O)C[C@]2(C)[C@@]1(O)C(=O)CO (stereo not given in full) 5.36%
COc1ccc2c(c1)c1nc3ccccc3nc1n2CCn1c(=O)oc2ccccc21 -1.06%
CCOCCCNc1ncnc2c1[nH]c1ccccc12 9.04%
O=C(Nc1nc2ccccc2s1)c1cc(-c2ccccc2)nn1-c1ccccc1 -23.8%
CCOC(=O)N/N=C1/C[C@@H](O)[C@@H](O)[C@@H]2[C@@H]3C(=O)N(c4cccc(Oc5ccccc5)c4)C(=O)[C@H]3CC[C@@H]12 -17.4% [at 11.7 µM]
